Test results: PubChem BioAssay AID651820 (National Center for Advancing Translational Sciences (NCATS), 2012)
Out of some 340,000 compounds screened, about 12,000 (3.5%) were called active. This list was built around the results that the source calls inconclusive (neither active nor inactive); the mix of calls is not that of the screen. The call rests on the fitted dose curve; in most records, active means well fitted inhibition curve with a large enough effect; inconclusive means small, poorly fitted or top-dose-only effect, or another doubt; inactive means no such curve, though single readings can be large or run the other way. Potencies of inconclusive entries are left out as doubtful fits.

Assay: qHTS Assay for Inhibitors of Hepatitis C Virus (HCV)
Details: Huh7.5.1 HCVcc-Cre (HCVcc is cell-culture hepatitis C virus) infection, luciferase reporter, 44 h; activity change, negative = inhibition: at 41.8 µM (top of the series)
How it was run: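 A cell-based infection assay in which seeded cells (1,000 per well) receive test compound after 4 h, are inoculated with HCVcc-Cre at approximately 0.5 moi, and are incubated 44 h before luminescence detection.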
On the % scale 0 is the no-effect control and ±100 the full control effect; potency means the concentration at half of the fitted maximal effect; tags describe the fitted curve by direction and shape.

SMILES | Potency | activity change, negative = inhibition
COc1ccc(-c2cc(C(F)(F)F)n3ncc(C(=O)N4CCCCC4c4cccnc4)c3n2)cc1 (stereo unspecified) | inconclusive [inhibitor, partial curve] | 
COc1cc(C(C2C(=O)CC(C)(C)CC2=O)C2C(=O)CC(C)(C)CC2=O)ccc1O |  | inactive: 11%
O=C(c1cc(C2CC2)on1)N1CCN(c2ccc(F)cc2)CC1 | inconclusive [inhibitor, single point] | 
CN1CCC(OC(=O)c2cccc(F)c2)CC1 | inconclusive [inhibitor, single point] | 
COc1ccc(NC(=O)COc2ccccc2Cc2ccccc2)cc1S(=O)(=O)N1CCOCC1 | inconclusive [inhibitor, single point] | 
Cc1ccc(NS(=O)(=O)c2ccc3c(c2)NC(=O)CO3)cc1Cl |  | inactive: 7.99%
NS(=O)(=O)c1ccc(NC(=O)CSc2ccccn2)cc1 |  | inactive: -10%
CN1CC[C@]2(CCN3CCc4c(oc5ccccc45)[C@@H]3C2)N(C)C1=O | inconclusive [inhibitor, partial curve] | 
O=C(CCCCCn1c(=O)[nH]c2ccccc2c1=O)NCCCN1CCN(c2ccccc2F)CC1 | active: 12.6 µM | 
Cc1ccc(S(=O)(=O)N2CCCCC2)cc1NC(=O)Cc1cccs1 |  | inactive: -15.2%
COc1ccc(CC(=O)N[C@@H]2c3ccccc3CC[C@H]2OCc2ccccc2)cc1 | inconclusive [inhibitor, partial curve, poor fit] | 
CCn1cc(C(=O)NCC(OC)OC)c(=O)c2cc(S(=O)(=O)N3CCC(C)CC3)ccc21 |  | inactive: -3.34%
CCCN(CCC)C(=O)CC(c1ccccc1)c1cc(Br)ccc1O (stereo unspecified) | inconclusive [inhibitor, single point] | 
COc1ccc(NS(=O)(=O)c2ccc(N3CCCC3)c(N)c2)cc1 | inconclusive [inhibitor, partial curve] | 
CN(C)CCSC1c2ccccc2CSc2ccccc21 (stereo unspecified) | inconclusive [inhibitor, partial curve] | 
CCCOc1ccc(-c2nc(N3CCN(C)CC3)c3ccccc3n2)cc1 | inconclusive [inhibitor, single point] | 
CCOc1cc(N2CCOCC2)c(OCC)cc1NC(=O)c1ccc(OC)cc1 | active: 4.47 µM | 
O=C(CN1CCN(CCN2C(=O)c3cccc4cccc(c34)C2=O)CC1)c1ccc(F)cc1 | active: 14.1 µM | 
Cc1ccc2c(c1)NC(=O)C(CC(=O)NCCCN1CCN(c3cc(C)ccc3C)CC1)O2 (stereo unspecified) | inconclusive [inhibitor, partial curve] | 
C[C@@H]1CN([C@@H](C)CO)C(=O)Cc2cc(NC(=O)C3CCCCC3)ccc2O[C@H]1CN(C)S(=O)(=O)c1ccccc1 |  | inactive: -7.31%
COc1ccc(Cl)cc1NC(=O)NC(C)C | inconclusive [inhibitor, single point] | 
CC(NC(=O)COC(=O)c1nc(Cl)ccc1Cl)c1ccccc1 (stereo unspecified) |  | inactive: 6.98%
COC(=O)c1[nH]c2c(c1C)C(=O)CC(c1cc(OC)c(OC)c(OC)c1)C2 (stereo unspecified) | active: 10 µM | 

SMILES | Potency | activity change, negative = inhibition
COc1ccc([N+](=O)[O-])c(S(=O)(=O)c2ccc(Cl)cc2)n1 | inconclusive [inhibitor, partial curve] | 
N#C/C(=C\c1ccco1)C(=O)NCC1CCCO1 (stereo unspecified) | inconclusive [inhibitor, single point] | 
Cc1cc(OCC(=O)OCC(=O)NC2CCCCC2C)ccc1Cl (stereo unspecified) | inconclusive [inhibitor, single point] | 
Cc1ccc(C(=O)C[n+]2cc(Br)cc(Br)c2)cc1[N+](=O)[O-] | inconclusive [inhibitor, partial curve] | 
CN(C)CCCCOc1ccc(Br)cc1Cl | active: 10 µM | 
Cc1cccc(N=Nc2c(N)n[nH]c2-c2ccc(Cl)cc2)c1 | inconclusive [inhibitor, single point] | 
O=C(CCCOc1ccc(Cl)cc1Cl)Nc1cc(S(=O)(=O)N2CCOCC2)ccc1N1CCOCC1 | inconclusive [inhibitor, partial curve] | 
Cc1ccccc1-n1c(SCC(=O)N/N=C/c2c(C)nn(-c3ccccc3)c2C)nc2ccccc2c1=O | inconclusive [inhibitor, partial curve] | 
CCOC(=O)C1=C(C)NC(C)=C(C(=O)OCC)C1C(=O)OCC(=O)N1c2ccccc2CC1C (stereo unspecified) | inconclusive [inhibitor, single point] | 
CCCSC1=N/C(=C/c2ccsc2)C(=O)N1c1ccccc1 | inconclusive [inhibitor, partial curve] | 
Cc1nn2c(NCCN3CCOCC3)c3c(nc2c1-c1ccccc1)CCCC3 | inconclusive [inhibitor, full curve] | 
CCOC(=O)C1CCCN(C(=O)c2cccc(S(=O)(=O)N3CCCC3)c2)C1 (stereo unspecified) |  | inactive: -3.66%
CCCCCC(O)CCCC(=O)O (stereo unspecified) |  | inactive: 21.2%
Cc1ccc2oc(=O)c3cc(C(=O)NCCCN4CCCC(C)C4)sc3c2c1 (stereo unspecified) | inconclusive [inhibitor, single point] | 
Cc1ccc(/C=C/C(=O)C2C(=O)c3ccccc3C2=O)cc1 | inconclusive [inhibitor, partial curve] | 
Fc1ccc(-c2cc(C(F)(F)F)nc(NCC3CCCO3)n2)cc1 (stereo unspecified) | active: 10 µM | 
CCCCCc1c2c(cc(O)c1C(=O)O)OC(=O)c1cc(C(=O)CCCC)c(OC)cc1O2 | active: 0.501 µM | 
COc1ccccc1NC(=S)NC(=O)CCCOc1ccc(Cl)cc1Cl |  | inactive: -4.62%
Cc1cccc(C)c1NC(=O)CN(C)C(C)C(=O)Nc1ccccc1-c1ccccc1 (stereo unspecified) | inconclusive [inhibitor, single point] | 
O=c1oc2ccccc2cc1-c1csc(Cc2nc(-c3ccc(Br)cc3)cs2)n1 | inconclusive [inhibitor, full curve] | 
CCCOC(=O)Nc1ccc(C(N)=O)cc1 |  | inactive: -3.98%
O=C(N/N=C/c1cccnc1)c1ccc(Cl)c(Cl)c1 |  | inactive: 5.49%
NC(=O)C1CCCN(C(=S)NCc2ccc3c(c2)OCO3)C1 (stereo unspecified) |  | inactive: -7.82%
